Hit rate of the full screen: of about 48,000 compounds, about 450 (0.94%) were called active. Not shown: some 19% with an inconclusive outcome. Calls come from the whole dose curve; as a rule, active = well fitted inhibition curve with a large enough effect; inconclusive = small, poorly fitted or top-dose-only effect; inactive = no such curve, though single readings can be large or run the other way. This is one part of the list.
Experiment: Primary qHTS for Identification of Small Molecule Inhibitors of Huntingtin Promoter Activity; note: nearly all actives have a fitted effect of over 50% in size
Settings: HEK293 HTT promoter firefly luciferase reporter (activity 0% = vehicle and -100% = no light), 24 h; series mostly up to 57.5 µM; activity change, negative = inhibition: at the top concentration
How it was run: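 Firefly luciferase readout (Dual-Glo, 10 min RT) after 24 h, 37 °C compound exposure (final up to 57.5 uM) of HEK293 reporter cells cultured 24 h beforehand; PTC124 at 50 uM final as control inhibitor; activity scaled vehicle 0%, zero RLU -100%.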

Activity change, negative = inhibition, inactive:
Cc1ccc(-c2nnc3ccccc3c2C(=O)Nc2ccc(C)c(F)c2)cc1 31.5%, CCc1nnc(SCc2nc(-c3cccc(Cl)c3)oc2C)c2cc3sc(C)cc3n12 7.13%, COc1cc(OC)c(NS(=O)(=O)c2cc3c(cc2C)N(C(C)=O)CCO3)cc1Cl -6.21%, COc1ccccc1NC(=O)CN(c1cc(C)cc(C)c1)S(=O)(=O)c1c(C)[nH]c(=O)[nH]c1=O -9.33%, NC(=O)c1c(NC(=O)c2cc(-c3ccc(F)cc3)on2)sc2c1CCCC2 -1.53%, Cc1cccc(NC(=O)Cn2nnc(C(=O)NCc3cccs3)c2N)c1 -8.29%, CCC(C(=O)Nc1ccc(C(C)C)cc1)n1nc(C)n2c(cc3cc(C)ccc32)c1=O (configuration not stated) -3.59%, COc1ccc(Cl)cc1NC(=O)CCn1c(=O)c2cccn2c2ccccc21 -13.8%, Cc1ccc(C)c(Cn2c(=O)cc(C(F)(F)F)c3c(C)nn(C)c32)c1 -12.9%, CCOc1ccc2oc(=O)cc(CN3CCN(Cc4ccc(C)cc4)CC3)c2c1 -12.5%, Cc1ccc(Nc2c3c(nc4nc(-c5cccs5)nn24)CCCC3)cc1F -23%, Cc1oc(-c2ccc(Cl)cc2)nc1CS(=O)CC(=O)NCCc1ccccc1 (configuration not stated) -21.3%, CCN(CC)CC(=O)OCC(=O)[C@@]1(O)CC[C@H]2[C@@H]3CCC4=CC(=O)CC[C@]4(C)[C@H]3[C@@H](O)C[C@@]21C -4.68%, COc1ccccc1OCC(=O)N(Cc1cccs1)C1CCS(=O)(=O)C1 (configuration not stated) -16.1%, CCOC(=O)Cn1nc(C)c(NC(=O)COc2ccccc2)c1C -4.87%, COc1ccc(S(=O)(=O)NC(C)(C)C)cc1-c1nnc2c3ccccc3c(C)nn12 0.417%, COc1ccccc1CNc1nc(-c2ccco2)nn1S(C)(=O)=O 26.2%, COc1ccc(-n2cc(-c3ccccc3)nc2SCC(=O)Nc2ccccc2C)cc1 -24.2%, Cc1ccc(CNc2nc3ccc(Cl)cc3n3nnnc23)cc1 9.12%, COc1cc(NC(=O)CCn2c(=O)oc3ccccc32)cc(OC)c1OC -8.79%, Cc1cc(-c2ccc(C)c(S(=O)(=O)Nc3ccccn3)c2)on1 -20.9%, COc1cc(OC)c(NS(=O)(=O)c2c(C(=O)N3CCCCCC3)c(C)n(C)c2C)cc1Cl -1.49%, CSc1ccc(NC(=O)C2CCN(c3ncccn3)CC2)cc1 17%, CCN1CCN(c2ncc3c(n2)CCN(CC(C)C)C3)CC1 -15.1%, COc1ccc(Br)cc1CNC(=O)c1ccc2nc(C(C)C)oc2c1 -23.7%, COc1ccccc1CNC(=O)CCCCn1c(=O)c2ccccc2n(CC(=O)Nc2c(C)cc(C)cc2C)c1=O 21.5%, COc1ccccc1Cc1nc2ccccc2nc1SCC(=O)Nc1ccc2c(c1)OCO2 -4.99%, CC(=O)[C@]1(O)Cc2c(O)c3c(c(O)c2[C@@H](O[C@H]2C[C@H](N)[C@H](O)[C@H](C)O2)C1)C(=O)c1ccccc1C3=O -40%, Cc1ccc(NC(=O)CN2C(=O)C(c3ccc(C(C)(C)C)cc3)=NC2(C)C)cc1 -28.9%, CCCN(CCC)C(=O)CSc1c2c(nc3ccc(Cl)cc13)CCCC2 -16.2%, O=[N+]([O-])c1cc(-c2nc(-c3ccccc3)no2)ccc1NCc1cccnc1 -23.4%, CN1C(CSCC(F)(F)F)Nc2cc(Cl)c(S(N)(=O)=O)cc2S1(=O)=O (configuration not stated) -5.24%, Cc1cc(C)cc(-n2c(SCC(=O)Nc3cccc(F)c3)nc3c([nH]c4ccccc43)c2=O)c1 -20.2%, Cc1ccc(C)c(NC(=O)C(Cc2ccccc2)n2cccc2)c1 (configuration not stated) -18.9%, Cc1ccc(C(=O)Nc2ccc(-c3nc4ccccc4o3)cc2)cc1Cl 28.5%, COCCNc1nc2c(c(=O)n(Cc3cccc(Cl)c3)c(=O)n2C)n1C -3.9%, COc1ccc2c(c1)c1c(c(=O)n(Cc3ccccc3)c(=O)n1Cc1ccccc1Cl)n2C -15.2%, COc1ccc(OCC(=O)Nc2c(C(=O)N3CCN(c4ccccc4)CC3)oc3ccccc23)cc1 -11.5%, CCc1ccc(NC(=O)C2=C(C)C(=O)OC23CCCCC3)cc1 -13.6%, CCOC(=O)c1c(-c2ccc(OC)c(OC)c2)csc1NC(=O)c1ccc(C)cc1 -0.722%, O=C(O)c1cccc(NC(=O)c2cc3cc(Br)cc(Br)c3oc2=O)c1 11.5%, O=C(NCc1ccc(F)cc1)c1cc2cccc3c2n1CCS3 -29.1%, COC(=O)c1ccc(NC(=O)C(=O)NCC(c2cccnc2)N2CCN(c3ccccc3)CC2)cc1 (configuration not stated) -24.4%, Cc1ccc(NC(=O)c2cnc3cc(C)ccn3c2=O)c(C)c1 58%, COc1c2occc2c(OC)c2c(=O)cc(C)oc12 4.89%, CCCCSc1nc(-c2cccc(OC)c2)nc2c1Cc1c(CO)cnc(C)c1O2 -8.89%, CC1(C)S[C@@H]2[C@H](NC(=O)Cc3ccccc3)C(=O)N2[C@H]1C(=O)O (tested in a mixture with another compound) -3.06%, CC(C)C[C@H](NC(=O)CNC(=O)[C@H](Cc1ccc(O)cc1)NC(=O)[C@H](CO)NC(=O)[C@H](Cc1c[nH]c2ccccc12)NC(=O)[C@H](Cc1cnc[nH]1)NC(=O)[C@@H]1CCC(=O)N1)C(=O)N[C@@H](CCCN=C(N)N)C(=O)N1CCC[C@H]1C(=O)NCC(N)=O (stereo in doubt) 11%, CC1CCCCN1C(=O)CN1CCSc2ccccc21 (configuration not stated) -19%, CCC(=O)Nc1ccc(CC)cc1-c1nc2ccccc2n(CC(=O)c2ccc(OC)cc2)c1=O -0.761%, Cc1ccc(-c2cc(NC(=O)c3cccc(C)c3)on2)cc1 28.4%, CCc1nonc1NC(=O)c1oc2cc(C)c(C)cc2c1C 38.5%, O=S(=O)(NCc1ccc(F)cc1)c1ccc2[nH]c3c(c2c1)CCCC3 -12.8%, COc1ccc(C(=O)Oc2ccc(C(c3c(C)[nH][nH]c3=O)c3c(C)[nH][nH]c3=O)cc2)cc1 -6.65% [at 11.5 µM], COc1ccc(NC(=O)C2Cc3ccccc3CN2S(=O)(=O)c2ccccc2)cc1OC (configuration not stated) -13.7%, CCc1ccccc1NC(=O)CCCn1c(=O)c2cccn2c2ccccc21 -4.74%, COc1cccc(-n2c(SCC(N)=O)nc3c(oc4ccccc43)c2=O)c1 -21.3%, Cc1cc(S(=O)(=O)Nc2ccc3oc4c(c3c2)CCCC4)ccc1Cl 7.45% [at 11.5 µM], CCCc1nn2c(=O)cc(COC(=O)c3ccc(NC(=O)COc4ccccc4F)cc3)nc2s1 -16.3%, CCOc1ccc(CCNCc2c(C(=O)O)c(C)n(Cc3ccccc3F)c2C)cc1 -12.4%, Cc1ccc(S(=O)(=O)N2CCc3cc(C(=O)Nc4ccc(Cl)cc4C)ccc32)cc1 -7.1%, CCOc1ccc(NC(=O)[C@@H](c2ccccc2)N2Cc3ccccc3C2=O)cc1 -10%, COc1ccc(NS(=O)(=O)c2ccc3c(c2)[C@H]2C=CC[C@H]2[C@@H](c2ccc(C(=O)O)cc2)N3)cc1 -2.86%, Cc1noc(-c2ccc(-c3noc(-c4ccc([N+](=O)[O-])c(C)c4)n3)cc2)n1 -7.29% [at 11.5 µM], CCN(CC)c1ccc(NC(=O)CCc2c(C)nc3ncnn3c2C)c(C)c1 -12.9%, Cc1cccn2c(=O)c(C(=O)N3CCN(c4ccc(Cl)cc4)CC3)cnc12 0.442%, CCOC(=O)c1cc2c(=O)n3ccccc3nc2n(Cc2ccco2)c1=NC(=O)c1cccc(Br)c1 -24.8%, Cc1ccc(-n2nnnc2CNC(=O)C2CC(=O)N(c3ccccc3)C2)cc1C (configuration not stated) 1.39%, COc1ccc(Cl)cc1NC(=O)Cn1nnc2sc(-c3ccccc3)cc2c1=O 3.46%, Fc1ccccc1N1CCN(c2ncnc3c2nc2n3CCCC2)CC1 -13.7%, COc1ccc(CCNC(=O)CCCCn2c(=O)c3ccccc3n(Cc3ccccc3)c2=O)cc1OC -12.3%, CN(C)c1ccc(NC(=O)Cn2cc(S(=O)(=O)Cc3ccccc3Cl)c3ccccc32)cc1 -12.3%, CCn1cc2nc(SCC(=O)Nc3ccc(OC)cc3OC)n(Cc3ccc(Cl)cc3)c(=O)c2n1 -27.7%, Nc1cc(C(Cl)=C(Cl)Cl)c(S(N)(=O)=O)cc1S(N)(=O)=O, CCCCN(C)c1nnc(NC(=O)Nc2ccc(Br)c(C)c2)s1 -16.3%, CCOc1ccc(NC(=O)Cn2cc(C(=O)c3ccc(C)cc3)c(=O)c3cc4c(cc32)OCO4)cc1 -13.5%, CCc1ccc(CN(Cc2ccco2)C(=O)c2cc(-c3ccc(C)c(F)c3)on2)cc1 -12.7%, CCOCCc1nn2c(=O)cc(COC(=O)c3ccccc3NC(=O)c3ccc(C)cc3)nc2s1 0%, CCn1c2c(c(=O)n3ncc(C(=O)Nc4ccc(Cl)cc4C)c13)CN(Cc1ccc(OC)cc1)CC2 -21.5%, Brc1cccc(-c2nnn3c2nc(N2CCCCC2)c2ccccc23)c1 -0.549%, O=C(CNS(=O)(=O)c1cccs1)N1CCN(c2ccccc2F)CC1 28.5%, CCCn1c(=O)c2sccc2n2c(CCCC(=O)NC3CCCCC3)nnc12 -11.7%, Cc1ccccc1Cn1c(C)c(CNCCCc2ccccc2)c(C(=O)O)c1C -20.7%, COc1ccc(C2C=C(c3ccc(Cl)cc3)Nc3nc(NC(=O)CCC(=O)O)nn32)cc1 (configuration not stated) -4.36%, Cc1ccccc1Nc1c(-c2c[nH]c3ccccc23)nc2cccc(C)n12 22%, O=c1c2sc3ccccc3c2n(Cc2ccc(Cl)cc2)c(=O)n1Cc1ccco1 -1.19%, COc1ccc(-c2csc3nc(-c4ccc(C)cc4)oc(=O)c23)cc1OC 14.1%, COc1ccc(CCN(C)CCCC(C#N)(c2cc(OC)c(OC)c(OC)c2)C(C)C)cc1OC (configuration not stated) -10%, CCCOc1cccc(C(=O)N2CCCCC2CCN2CCCCC2)c1 (configuration not stated) -4.72%, CCC(C)NC(=O)Cn1c(=O)c2cccn2c2ccc(F)cc21 (configuration not stated) 0.853%, O=C(Nc1ccc(F)cc1Cl)c1cnc(N2CCOCC2)c2ccccc12 6.58%, COc1cccc(CNC(=O)c2cc(=O)[nH]c3ccc(S(=O)(=O)N4CCCC4)cc23)c1 -14.3%
